Consider 86 compounds from PubChem BioAssay AID1645887 (National Center for Advancing Translational Sciences (NCATS), 2021).

Several values for one entry are separate records, joined by “and”; a condition that tells them apart may be missing. Equal values may be shown once. Out of some 16,000 compounds screened, about 40 (0.2%) were called active. Not shown: some 1% with an inconclusive outcome. The call rests on the fitted dose curve; in most records, active means well fitted activation curve with a large enough effect; inconclusive means small, poorly fitted or top-dose-only effect, or another doubt; inactive means no such curve, though single readings can be large or run the other way. The list shows a part of the results. Residues, ends and D or L forms follow the SMILES beside them.
On the % scale 0 is the no-effect control and ±100 the full control effect.

Sequence of UniProt Q8WZA2 (Q8WZA2 whole entry, looked up): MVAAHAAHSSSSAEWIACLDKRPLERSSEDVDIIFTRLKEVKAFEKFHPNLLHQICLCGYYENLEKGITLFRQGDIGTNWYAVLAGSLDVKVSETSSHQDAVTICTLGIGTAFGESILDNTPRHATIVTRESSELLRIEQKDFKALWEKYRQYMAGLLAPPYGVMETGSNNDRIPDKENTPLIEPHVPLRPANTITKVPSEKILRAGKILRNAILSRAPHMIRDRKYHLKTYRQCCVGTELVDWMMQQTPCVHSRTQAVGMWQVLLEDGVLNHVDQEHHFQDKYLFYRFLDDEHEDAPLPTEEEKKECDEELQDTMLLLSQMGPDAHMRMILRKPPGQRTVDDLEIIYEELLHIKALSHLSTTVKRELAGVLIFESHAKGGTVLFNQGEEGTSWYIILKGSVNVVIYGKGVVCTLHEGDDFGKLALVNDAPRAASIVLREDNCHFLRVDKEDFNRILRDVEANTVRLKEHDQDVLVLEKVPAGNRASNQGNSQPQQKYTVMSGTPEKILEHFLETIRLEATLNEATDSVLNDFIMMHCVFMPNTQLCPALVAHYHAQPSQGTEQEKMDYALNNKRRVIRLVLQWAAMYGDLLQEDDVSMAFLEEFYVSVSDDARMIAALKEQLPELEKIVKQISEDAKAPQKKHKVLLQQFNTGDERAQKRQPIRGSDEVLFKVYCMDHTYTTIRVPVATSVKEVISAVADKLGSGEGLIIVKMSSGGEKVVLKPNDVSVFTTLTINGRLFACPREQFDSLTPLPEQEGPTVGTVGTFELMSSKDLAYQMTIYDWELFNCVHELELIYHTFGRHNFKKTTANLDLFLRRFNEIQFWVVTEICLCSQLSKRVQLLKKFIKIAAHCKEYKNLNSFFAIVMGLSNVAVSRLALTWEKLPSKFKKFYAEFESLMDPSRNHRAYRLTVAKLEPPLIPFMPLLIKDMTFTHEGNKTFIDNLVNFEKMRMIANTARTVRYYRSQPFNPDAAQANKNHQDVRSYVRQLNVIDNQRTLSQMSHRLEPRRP

The experiment addresses Rap guanine nucleotide exchange factor 4 (Homo sapiens) (UniProt Q8WZA2). In words: Validation qHTS for agonist of cAMP-regulated guanine nucleotide exchange factor 4 (EPAC2).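 Further: exchange makes BODIPY-GDP fluorescence drop when released from Rap1B; series mostly up to about 150 µM.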 Particulars: EPAC2 Rap1B BODIPY-GDP exchange, fluorescence; activation: stronger effect = higher value. A digest of the protocol:
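Fluorescent exchange assay: 100 nM EPAC2 with 250 nM RAP1B-BODIPY-GDP and 50 uM GDP; compound added, 5 min at room temperature, then read (ex 480/em 540 nm) every 5 min for 30 min. Normalized to 6.5 mM cAMP agonist control.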
On to `CC[C@@H]1CN2CC[C@@H]1C[C@H]2[C@H](O)c1ccnc2ccc(OC)cc12`, for which the activation is inactive: -8.78%.

As to `C[C@]12N[C@H](Cc3ccccc31)c1ccccc12`, the activation was inactive: 7.5% and inactive: -11.3% and inactive: -36.4%.

In the case of `O=C(N[C@@H]1N=C(c2ccccc2F)c2cccc3c2N(CC3)C1=O)c1cc2ccccc2[nH]1`, the activation was inactive: -11.6%.

On to `O=C1CCCN1CC#CCN1CCCC1`, for which the activation is inactive: -4.96% [middle of 4 runs].

For the compound `CC(C)(C)c1o[nH]c(=O)c1CC(N)C(=O)O` (stereo unspecified), the activation was inactive: -25.4%.

On to `C=CCC1(C(C)CCC)C(=O)N=C(S)NC1=O` (stereo unspecified), for which the activation is inactive: -15.4%.

In the case of `CCN(CC)C(C)C(=O)c1ccccc1` (stereo unspecified), the activation is inactive: 5.71%.

For the compound `COc1ccc2c(c1OC)C(=O)O[C@@H]2C1c2cc3c(cc2CCN1C)OCO3` (stereo partly specified), the activation is inactive: -5.82%.

Consider `N#Cc1cccc(NC(=O)N2CC3(CCN(C(=O)Oc4ccccc4)CC3)C2)c1`, for which the activation is inactive: -4.84%.

`CC(C)CN1CC2(CCN(C(=O)Oc3ccccc3)CC2)C1`: the activation is inactive: 4.73%.

Consider `CCN1C[C@@]2(COC)C3[C@@H](OC)C4[C@@H]1[C@@]3(C1C[C@@]3(O)[C@H](OC(=O)c5ccccc5)C1[C@]4(OC(C)=O)[C@@H](O)[C@@H]3OC)[C@@H](OC)C[C@H]2O` (stereo partly specified), for which the activation is inactive: 5.32%.

Consider `COC(=O)C(c1ccccc1)C1CCCCN1` (stereo unspecified), for which the activation is inactive: -6.45%.

For `COC(=O)c1cncn1C(C)c1ccccc1` (stereo unspecified), the activation was inactive: -12.1%.

Regarding `ClC=C(Cl)Cl`, the activation was inactive: -4.89%.

`C[C@H]1C(=O)O[C@@H]2CCN3CC=C(COC(=O)[C@](C)(O)[C@]1(C)O)[C@H]23`: the activation was inactive: 17.2%.

On to `CCCN1C[C@H](C)N([C@H](c2ccc(C(=O)N(CC)CC)cc2)c2cccc(OC)c2)C[C@H]1C`, for which the activation was inactive: -26.5% and inactive: -7.7%.

Turning to `CC(C)=CCCC1(C)C=Cc2c(O)c3c(c(CC=C(C)C)c2O1)OC12C(=CC4CC1C(C)(C)OC2(C/C=C(/C)C(=O)O)C4O)C3=O` (stereo unspecified), the activation was inactive: -33.8%.

Consider `Clc1ccc([C@@H]2C[C@H]3CC[C@@H]2N3)cn1`, for which the activation was inactive: -29.3% and inactive: -15.5%.

For the compound `O=C(O)COc1cc(Cl)c(Cl)cc1Cl`, the activation is inactive: -9.08%.

As to `O=[N+]([O-])/N=C1\NCCN1Cc1ccc(Cl)nc1`, the activation is inactive: -31.2% and inactive: 12.4%.

As for `CC(=O)OCC1=C(C(=O)O)N2C(=O)[C@@H](N)[C@H]2SC1`, the activation is inactive: -1.58%.

As for `CN1C(=O)CN=C(c2ccccc2)c2cc([N+](=O)[O-])ccc21`, the activation is inactive: 4.76%.

For `CC(=O)[C@H]1CC[C@H]2[C@@H]3CC[C@@H]4C[C@H](O)CC[C@]4(C)[C@H]3CC[C@]12C`, the activation is inactive: 1.96%.

`CCC1C2CC3C4N(C)c5ccccc5[C@]45CC(C2C5O)N3C1O` (stereo partly specified): the activation was inactive: -2.58%.

For the compound `CCCN1CCc2cc(O)cc3c2[C@H]1Cc1ccc(O)c(O)c1-3`, the activation was inactive: -24.3%.

For `OC[C@@H](O)[C@H]1O[C@@H]2O[C@H](C(Cl)(Cl)Cl)O[C@@H]2[C@H]1O`, the activation is inactive: 2.88%.

`O=C(O)CCC1NCC2CC1CN1CCCCC21` (stereo unspecified): the activation is inactive: -6.42%.

For `COc1cc(CCN)ccc1O`, the activation was inactive: 3.01%.

As for `O=C(Oc1ccccc1)N1CCC2(CCN(Cc3nccs3)CC2)CC1`, the activation is inactive: -6.89%.

As for `C#CCN[C@H](C)Cc1ccccc1`, the activation is inactive: -15%.

For `CCCN(CCC)[C@@H]1CCc2cccc(O)c2C1`, the activation is inactive: -13.9% and inactive: 0.74% and inactive: -46.2%.

Turning to `C[C@]12CC[C@H]3[C@@H](CCC4=CC(=O)CC[C@@]43C)[C@@H]1CC[C@H]2O`, the activation is inactive: -0.042%.

As to `NCc1cc(=O)[nH]o1`, the activation was inactive: -11% and inactive: -12.9% and inactive: -6.25%.

Consider `C[C@H]1CCC/C=C/C2C[C@H](O)C[C@H]2[C@H](O)/C=C/C(=O)O1` (stereo partly specified), for which the activation was inactive: 2.69%.

Turning to `CN1C(=O)NC(=O)C(C)(C2=CCCCC2)C1=O` (stereo unspecified), the activation is inactive: -16.2% and inactive: 7.96%.

As for `O=C1CCC[C@H]2[C@H]3CCCN4CCCC(=CN12)[C@@H]34`, the activation was inactive: 2.17%.

Consider `COc1cc2c(c(OC)c1OC)-c1ccc(O)c(=O)cc1[C@@H](NC(C)=O)CC2`, for which the activation is inactive: -8.03%.

Consider `O=C1CCCC2[C@@H]3CCCN4CCC[C@@H](CN12)C34` (stereo partly specified), for which the activation was inactive: 2.93%.

As for `CN1CCCC(=C(c2cccs2)c2cccs2)C1`, the activation is inactive: -15.2%.

In the case of `C#C[C@]1(O)C=C[C@H]2[C@@H]3CCC4=CC(=O)CC[C@@H]4[C@H]3CC[C@@]21CC`, the activation was inactive: -11.6%.

Turning to `Cc1nnc2ccc(-c3cccc(C(F)(F)F)c3)nn12`, the activation is inactive: -19.7%.

As to `COc1cc2c(cc1-c1cc3cc4ccoc4cc3oc1=O)OCO2`, the activation is inactive: -15.2%.

On to `CCCC[C@@H](C)[C@@H](OC(=O)C[C@@H](CC(=O)O)C(=O)O)[C@H](C[C@@H](C)C[C@H](O)CCCC[C@@H](O)C[C@H](O)[C@H](C)N)OC(=O)C[C@H](CC(=O)O)C(=O)O`, for which the activation is inactive: -4.43%.

Take `COC(=O)[C@H]1[C@@H](OC(=O)c2ccccc2)C[C@@H]2CC[C@H]1N2C`: the activation is inactive: -17.2%.

As for `CCC1C(=O)OC[C@H]1Cc1cncn1C` (stereo partly specified), the activation is inactive: -4.78%.

On to `C[C@@H](Cc1ccc(OCC(=O)O)cc1)NC[C@H](O)c1cccc(Cl)c1`, for which the activation was inactive: -8.02%.

Take `CC(C)C[C@H](CN)CC(=O)O`: the activation was inactive: 13.8%.

For `COc1cc2c(cc1OC)[C@@H]1C(=O)c3ccc4oc(C(C)C)cc4c3OC1CO2` (stereo partly specified), the activation is inactive: -22.5%.

As for `CN(C)C(=S)SSC(=S)N(C)C`, the activation was inactive: -26.3% and inactive: -18.9%.

For `C[C@H](NC(=O)[C@@H](N)Cc1ccc(O)cc1)C(=O)N[C@@H](Cc1ccccc1)C(=O)N[C@@H](Cc1ccccc1)C(N)=O` (H-YAFF-NH2), the activation was inactive: 0.757%.

Regarding `CC1CC[C@@]2(NC1)O[C@@H]1C[C@H]3C4CC=C5C[C@@H](O)CC[C@]5(C)C4CC[C@]3(C)[C@H]1[C@@H]2C` (stereo partly specified), the activation is inactive: -1.86%.

On to `CC(C)(C)NCC(O)c1ccccc1Cl` (stereo unspecified), for which the activation was inactive: -21.4% and inactive: -18%.

For the compound `CC1(C(=O)O)C2CCC(O2)C1(C)C(=O)O` (stereo unspecified), the activation is inactive: -33.5%.

Take `Oc1ccc([C@H]2CNCc3c2ccc(O)c3O)cc1O`: the activation was inactive: -2.04%.

For the compound `CCCN(CCC)[C@@H]1CCc2c(OC)cccc2[C@@H]1C`, the activation is inactive: -8.41% and inactive: -15%.

For `C[C@@]1(CO)[C@H](O)CC[C@@]2(C)[C@H]1CC[C@H]1C[C@@H]3C[C@@]12CC[C@]3(O)CO`, the activation is inactive: -50%.

Regarding `CN1[C@@H]2CC[C@H]1CC(OC1c3ccccc3CCc3ccccc31)C2` (stereo partly specified), the activation is inactive: 2.11%.

For the compound `NC(=NCCc1ccc(I)cc1)SCCCc1cnc[nH]1`, the activation was inactive: 2.46% and inactive: 0.812%.

For `CC(C)(C)C(=O)C(Oc1ccc(Cl)cc1)n1cncn1` (stereo unspecified), the activation is inactive: -17%.

On to `CC(=O)OO`, for which the activation is inactive: -15.7%.

`CN(C)[C@H](Cc1ccccc1)c1ccccc1`: the activation was inactive: -7.6%.

On to `CNC(C)C(O)c1ccccc1` (stereo unspecified), for which the activation is inactive: -20.7%.

Consider `COc1ccc(CNC(=O)/C=C\c2ccc3[nH]cc(CCN(C)C)c3c2)cc1`, for which the activation was inactive: -1.86%.

Regarding `CC(C)Oc1cccc(NC(=O)c2ccccc2C(F)(F)F)c1`, the activation is inactive: -18.4%.

As to `CN1CC[C@@]23CCCC[C@@H]2[C@@H]1Cc1ccc(O)cc13`, the activation was inactive: 4.34%.

Regarding `COc1cc(C[C@@H](C)N)c(OC)cc1Br`, the activation was inactive: -0.789%.

Turning to `O=NN1CCCC1c1cccnc1` (stereo unspecified), the activation is inactive: -7.5%.

Regarding `CC(C)c1cc2c(c(O)c1O)[C@]1(C(=O)O)CCCC(C)(C)C1CC2` (stereo partly specified), the activation is inactive: -4.43%.

Turning to `CCN(CC)C(=O)[C@@H]1C=C2c3cccc4[nH]cc(c34)C[C@H]2N(C)C1`, the activation was inactive: 27.5%.

For `CCNC1(c2cccs2)CCCCC1=O` (stereo unspecified), the activation is inactive: -5.35%.

Regarding `CC(C)C[C@H](NC(=O)[C@H](Cc1ccccc1)NC(=O)CNC(=O)[C@@H](NC(=O)[C@@H](N)Cc1ccc(O)cc1)[C@H](C)O)C(=O)N[C@H](C(=O)O)[C@H](C)O`, the activation was inactive: 1.51%.

For `CCNC(C)Cc1cccc(C(F)(F)F)c1` (stereo unspecified), the activation was inactive: -1.18%.

For `C1CCC(NC2CCCCC2)CC1`, the activation is inactive: -4.19%.

As to `COc1ccc(C(=O)CN2CCOCC2)cc1`, the activation is inactive: 0.04%.

As for `CCC1(c2cccc(O)c2)CCCCN(C)C1` (stereo unspecified), the activation is inactive: -17.8%.

As for `C[C@H](N)Cc1c[nH]c2ccc(OCc3cccs3)cc12`, the activation is inactive: -6.52%.

As for `CC(C)[C@]1(O)[C@@H](OC(=O)c2ccc[nH]2)[C@@]2(O)[C@@]3(C)C[C@]4(O)O[C@@]5([C@H](O)[C@@H](C)CC[C@]35O)[C@@]2(O)C41C`, the activation was inactive: -3.56%.

As to `C[C@@H]1CC[C@H]2[C@@H](C)C(=O)O[C@@H]3O[C@@]4(C)CC[C@@H]1[C@]32OO4`, the activation is inactive: -30.1%.

For `CC(=O)OCC1=C(C(=O)O)N2C(=O)C(NC(=O)CCCC(N)C(=O)O)C2SC1` (stereo unspecified), the activation was inactive: 5.6%.

For the compound `CC(=O)C1=C(O)[C@@H]2[C@@H]3c4c[nH]c5cccc(c45)C[C@@H]3C(C)(C)N2C1=O`, the activation was inactive: -11.2%.

For the compound `CS(=N)(=O)CC[C@H](N)C(=O)O` (stereo partly specified), the activation was inactive: -37.1%.

`O=c1cccc2n1CC1CC2CN2CCCCC12` (stereo unspecified): the activation was inactive: -3.23%.

Turning to `CCCN(CCC)CCc1ccc(O)c(O)c1`, the activation was inactive: 2.62% and inactive: -53.7%.

On to `Cc1nc2cnc(N3CCNCC3)nc2n(C)c1=O`, for which the activation was inactive: -28.8%.

`c1cnc(N2CC3(CCNCC3)C2)nc1`: the activation is inactive: 2.58%.

On to `CC1(C)N([O-])[N+](=O)C1(C)Br` (stereo unspecified), for which the activation was inactive: -16.7%.
